Measurements reported in PubChem BioAssay AID493208 (National Center for Advancing Translational Sciences (NCATS), 2011).
The whole screen tested about 44,000 compounds, of which about 340 (0.77%) were called active. Inconclusive results (about 5%) are left out. Calls come from the whole dose curve; as a rule, active = well fitted inhibition curve with a large enough effect; inconclusive = small, poorly fitted or top-dose-only effect; inactive = flat fitted curve, though single readings scatter. Some of the results follow.

Assay: Acumen qHTS Assay for Inhibitors of the mTORC1 Signaling Pathway in MEF (Tsc2-/-, p53-/-) Cells: Sytravon;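 note: plate controls were DMSO for no effect and rapamycin for full effect; nearly all actives have a fitted effect of over 50% in size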
Details: phospho-rpS6 immunofluorescence/PI, 24 h; series mostly up to 38.3 µM; activity change, negative = inhibition: at the top concentration
Procedure, shortened: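 Tsc2-/-, p53-/- MEFs (empty-vector stable line) in DMEM + 10% FBS were treated with compounds 24 h at 37 degree Celsius, fixed, and immunostained for phospho-rpS6 (Alexa-488) with propidium iodide counterstain. Laser-scanning cytometry gave % positive cells, normalized against 7.5 nM rapamycin and DMSO.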

Activity change, negative = inhibition, inactive:
O=C(Nc1ccccc1C(=O)N1CCCCC1)c1nsc2ccccc12 0%, CCCCCOc1ccc(/C=C/C(=O)Nc2sc3c(c2C(=O)OCC)CCC3)cc1OC 3.75%, CNC(=O)c1cnc2sc(N3CCC(C)CC3)nn2c1=O -3.5%, COc1ccc(NC(=O)CNC(=O)Cn2ccc3ccccc3c2=O)cc1OC -3.36%, O=C(Nc1ccc(F)c(F)c1)c1cc(S(=O)(=O)NC2CCCC2)ccc1F 0%, Cc1cccc(N2CCN(CCCNc3ncnc4onc(-c5ccc(F)cc5)c34)CC2C)c1 (stereo not drawn) -9.43%, COc1cccc(C(=O)Nc2ccc3nc(SCCOc4ccccc4)sc3c2)c1 -10.7%, O=C(CCNS(=O)(=O)c1ccc2c(c1)CCN2C(=O)C1CC1)Nc1ccc(OC(F)(F)F)cc1 -18.9%, CCC(C)NC(=O)Cn1ccc2cc(S(=O)(=O)N3CCCCCC3)ccc21 (stereo not drawn) 0.686%, CCc1ccc2oc(-c3cc(NC(=O)c4cccs4)ccc3Cl)nc2c1 2.5%, Cc1ccc(CCNC(=O)c2ccc3c(c2)N(Cc2cccc(F)c2)C(=O)c2ccccc2S3)cc1 -4.24%, COc1cccc2cc(C(=O)Nc3ccc(C)cc3)c(=O)oc12 -0.691%, CCOC(=O)c1ccc(NC(=O)C2=C(C)C(=O)OC23CCN(C(C)C)CC3)cc1 7.3%, CCn1cc(S(=O)(=O)c2ccccc2)c(=O)c2cc(F)c(F)cc21 -10.6%, Cc1ccc(CN(C(=O)COc2ccc(F)cc2)C2CCS(=O)(=O)C2)o1 (stereo not drawn) 2.78%, CCOc1ccc(N(CC)C(=O)Cn2cnc3sc(C)c(S(=O)(=O)N4CCN(c5ncccn5)CC4)c3c2=O)cc1 -16.5%, CC(C)CCNC(=O)c1ccc2nc(Cc3ccccc3)oc2c1 -7.37%, Cc1cc(NS(=O)(=O)c2ccc(NC(=O)COc3cc(C)c(Br)cc3C(C)C)cc2)no1 0.668%, COc1ccc(-c2cc(C(F)(F)F)nc(SCC(=O)NC(C)c3ccccc3)n2)cc1 (stereo not drawn) -21.4%, CCCN1C(C(=O)c2ccccc2)=C(OC(=O)COc2ccc(C)cc2)c2ccccc2S1(=O)=O 2.59%, COC(=O)CN1C(C(=O)c2ccccc2)=C(OC(=O)c2ccccc2)c2ccccc2S1(=O)=O 3.76%, Cc1ccc(NC(=O)CCCn2nc(C)c3c(C)n(-c4ccccc4)nc3c2=O)c(Cl)c1 -1.06%, Cc1ccc(NC(=O)C2CCCN(S(=O)(=O)c3cccs3)C2)c(C)c1 (stereo not drawn) -0.597%, COc1ccc(S(=O)(=O)N(CC(=O)Nc2ccc(Br)cc2)Cc2ccccc2)cc1 -0.828%, O=C(Nc1c2c(nn1-c1ccc(Cl)cc1)CS(=O)(=O)C2)c1ccc(Br)cc1 6.75%, CCCSCCCNC(=O)Cn1c(-c2cccs2)cc2ccccc21 -5.01%, Cc1cc(O)c(CN2CCN(c3ccccc3)CC2)c2oc(=O)cc(C)c12 -0.996%, Cc1nc(-c2ccc(S(=O)(=O)NCc3ccccc3Cl)cc2)co1 -7.4%, CCCn1c2ccccc2c2cnn(CC(=O)N3CCCC(C(=O)OCC)C3)c(=O)c21 (stereo not drawn) 0.426%, CCCCN(CCCC)C(=O)c1c[nH]c2ccc(S(=O)(=O)Nc3cccc(Cl)c3C)cc2c1=O -3.88%, COc1ccccc1-c1nn(CCC(=O)Nc2ccc(C)cc2)c2nc(C)cc(C)c12 0.297%, COc1ccc(S(=O)(=O)Nc2cccc(-c3ccc(N4CCCC4)nn3)c2)cc1F 1.91%, CC1=C(C(N)=O)C(c2ccc(C)cc2)n2nc(SCc3ccccc3)nc2N1 (stereo not drawn) -5.73%, O=C(NCc1ccccc1Cl)C1=Cc2cc(Br)ccc2OC1 1.16%, CCCCCn1c(CCCNC(=O)c2ccccc2OC)nc2ccccc21 -15.2%, CC(C)Oc1ccc(CNC(=O)c2cnc3sc(N4CCCC4)nn3c2=O)cc1 -2.88%, CCOC(=O)NNC(=O)C1CCC(C)CC1 (stereo not drawn) 4.37%, Cc1oc2c(c1C(=O)NCc1ccccc1F)C1=NCCN1C=N2 -2.55%, O=C(NCC(c1ccc2c(c1)OCO2)N1CCN(c2ccccc2)CC1)C(=O)Nc1ccccc1F (stereo not drawn) -3.11%, CCOc1ccc(NC(=O)CC2C(=O)N(c3ccc(OC)cc3)C(=O)N2CCC2=CCCCC2)cc1 (stereo not drawn) -4.39%, CCN(CC)C(=O)Cn1ncc2c([nH]c3ccccc32)c1=O 0.0836%, COc1cccc(N2CCN(C(=O)c3ccc4nc(N5CCC(C)CC5)sc4c3)CC2)c1 -1.47%, CCOC(=O)c1cnc2ccc(C(=O)OC)cc2c1Nc1ccc(OCc2ccccc2Cl)cc1 3.22%, COc1ccc(C)cc1NC(=O)N(C(C)C)C1CCN(C(C)=O)CC1 5.35%, O=C(O)c1cc(-c2ccccc2)nn1Cc1ccccc1 1.66%, Cc1ccc(-c2nnc3ccccc3c2C(=O)Nc2ccc(F)cc2)cc1 3.97%, COc1ccc(C(C)=O)cc1CSc1nc(Nc2ccc(F)c(F)c2)c2ccccc2n1 -1.19%, Cc1ccc(N2CCN(c3nc4ccc(C(=O)c5ccccc5)cc4n4cnnc34)CC2)c(C)c1 -2.42%, Cc1cc(C)cc(NC(=O)C(=O)NCCc2sc(-c3cccc(F)c3)nc2C)c1 1.6%, Cc1ccn2c(Nc3ccccc3)c(-c3c[nH]c4ccccc34)nc2c1 -19.1%, CC(=O)Nc1ccc(NC(=O)c2ccc3c(c2)CCN3S(=O)(=O)c2ccc(C)cc2)cc1 -8.95%, O=C(CSc1n[nH]c(-c2ccccc2)n1)N1CCN(c2ccc(F)cc2)CC1 8.36%, Cc1noc(Cn2c(=O)c3ccccc3n(CC(=O)Nc3cc(Cl)ccc3C)c2=O)n1 -5.42%, CCOC(=O)c1[nH]c2ccccc2c1NC(=O)c1ccc(C)c(C)c1 -1.22%, O=C(CCn1cnc2onc(-c3ccc(F)cc3)c2c1=O)Nc1cccc(C(F)(F)F)c1 -9.99%, Cc1ccc(-c2nnc(Nc3ccc(OCC(N)=O)cc3)c3ccccc23)cc1S(=O)(=O)NCC1CCCO1 (stereo not drawn) 0.785%, CCOc1ccccc1NC(=O)CN1C(=O)CC(c2ccc(C)c(C)c2)=Nc2ccccc21 -2.65%, Cc1ccc(-n2c(=O)c3c(cnn3C)n(CC(=O)Nc3cccc(Cl)c3)c2=O)cc1 3.25%, Cc1ccc(CNC(=O)C2CCN(C(=O)N3CC(C)Oc4ccc(Cl)cc43)CC2)cc1 (stereo not drawn) 1.03%, Cc1ccc(CSc2nc3ccccc3c3nc(CCn4c(C)nc5ccccc54)nn23)cc1 -3.1%, CCc1ccccc1NC(=O)CCn1cccn1 0.014%, Cc1cc(C)cc(NC(=O)C(C)N2Cc3ccccc3C2=O)c1 (stereo not drawn) -0.307%, CCOc1ccc(NC(=O)c2ccc3c(=O)n4c(nc3c2)CCCCC4)cc1 -0.309%, COc1cccc(NC(=O)C(C)n2c(=O)cc(C(F)(F)F)c3c(C)nn(C)c32)c1 (stereo not drawn) -6.14%, Cc1ccc(-c2nnc(SCc3ccccc3)o2)cc1 0.833%, O=C(NCc1cccc(Br)c1)C1CCCCN1S(=O)(=O)c1ccc(F)cc1 (stereo not drawn) 0%, CCCNC(=O)CN1C(=O)COc2ccc(S(=O)(=O)N3CCCCCC3)cc21 -7.55%, CC1CCN(S(=O)(=O)c2ccc3c(c2)N(C)C(=O)CC(=O)N3C)CC1 6.74%, CCc1ccc(CNC(=O)CN2C(=O)C3CCCCN3c3ccc(C(=O)N4CCCC4)cc32)cc1 (stereo not drawn) 0.44%, CC(C)Oc1ccc(CNC(=O)C(C)n2ccc3cc(S(=O)(=O)N4CCCCCC4)ccc32)cc1 (stereo not drawn) -6.06%, CCc1ccccc1NC(=O)Cn1c(=O)n(C(C)C)c(=O)c2oc3ccccc3c21 -9.92%, CCOc1ccccc1NC(=O)Cn1c(=O)nc(-c2ccccc2F)c2cc(Cl)ccc21 0%, COc1ccc(OCc2nc3ccccc3n2Cc2ccc(C(C)(C)C)cc2)cc1 -24.8%, CCN(CC)C(=O)Cn1c(SCC(=O)Nc2ccc(F)cc2)nc2ccccc21 19.3%, COCCNC(=O)c1ccc(Cn2c(SCC(N)=O)nc3ccccc3c2=O)cc1 1.72%, Cn1c(SCc2ccc(F)cc2)nc2ccc(C(=O)NCc3cccc(Cl)c3)cc21 -0.763%, COc1ccc2c(CNC3CCC(C)CC3)c(C(=O)O)n(Cc3ccc(F)cc3)c2c1 (stereo not drawn) -4.9%, COc1cccc(OCCSc2nc3ccccc3n2CC(=O)N2CCOCC2)c1 -12.5%, Cc1ccc(N(Cc2cccs2)C(=O)c2ccc(OC(C)C)cc2)cc1 0%, CCOc1ccccc1C(=O)NCc1ccc2c(c1)CCN2C(=O)c1ccc(F)cc1 -3.4%, COc1ccc(-c2noc(CN(C(=O)c3ccc(C)cc3C)C(C)C)n2)cc1 -0.118%, CCOC(=O)c1ccccc1NC(=O)CSc1ccc(-c2sc(C)nc2C)nn1 0.919%, Cc1ccc(C(=O)NCCc2csc(-c3cccc(F)c3)n2)cc1C 0.263%, CCN(C(=O)c1c(C)oc2ncnc(N3CCCCC3)c12)c1cc(C)ccc1C 1.27%, COc1ccc(C2CC(=O)Nc3c2c(C)nn3-c2nncc(-c3ccccc3)n2)c(OC)c1OC (stereo not drawn) -20.6%, COc1cc2nc(NCCc3cccc(C)c3)n3nc(-c4ccccc4)nc3c2cc1OC -2.94%, CCOC(=O)c1cccc(NC(=O)COc2ccc3c(C)cc(=O)oc3c2)c1 -10.4%, CCOC(=O)c1cnc2c(ccc3ccccc32)c1Nc1ccccc1O -7.36%, Cc1cc(C)cc(NC(=O)NCc2noc3ccccc23)c1 -5.86%, CCC(=O)N1CCCc2cc(S(=O)(=O)N3CCC(C(=O)NC4CCC(C)CC4)CC3)ccc21 (stereo not drawn) -0.518%, CCOc1ccccc1C(=O)Nc1cccc(-c2nc3ccccc3s2)c1 -0.986%, COc1ccccc1/C=C/c1nc(C#N)c(NCc2ccccc2)o1 -2.31%, COc1ccc(-c2cn3c(n2)sc2cc(C(=O)NCCc4ccccc4)ccc23)cc1 -9.37%, O=C(OCc1cc(=O)n2nc(C3CC3)sc2n1)c1cccc(NC(=O)c2ccccc2Cl)c1 0%, Cc1ccc(C)c(NC(=O)c2cnc(N3CCCC3)nc2C)c1 0%, COc1ccc(-n2ncc(C(=O)NCc3cccs3)c2C2CCN(C(=O)OC(C)(C)C)CC2)cc1 2.09%, Cc1cccc(CNC(=O)C2CCN(c3nn4cc(-c5ccc(F)cc5)nc4s3)CC2)c1 -3.03%, CCc1ccccc1N(CC)C(=O)c1cc2c(s1)-c1ccccc1SC2 -4.85%
